# Experimental data: the antibiotic and cytotoxicity screens of Wong et al. (2023)
# Some of the results follow.
# System: HSkMC (human skeletal muscle cells)
# Assay: cytotoxicity call (relative viability < 0.9)
# Details: 10 µM
row,SMILES,cytotoxicity call
1,COCC(=O)N1C[C@H](C)[C@@H](OC)CN(C)C(=O)c2ccc(NC(=O)Nc3cccc(F)c3)cc2OC[C@@H]1C,inactive
2,C[C@@H]1CCCCO[C@H](CN(C)Cc2ccccc2)[C@@H](C)CN([C@H](C)CO)C(=O)c2cc(NC(=O)c3ccccc3)ccc2O1,inactive
3,Cc1ccccc1NC(=O)C[C@H]1CC[C@H]2[C@@H](COc3ccc(NC(=O)c4ccc(Cl)cc4)cc3C(=O)N2C)O1,inactive
4,Cc1cc(O)n(C[C@H]2CCCO2)c(=O)c1C#N,inactive
5,C[C@@H]1CN([C@H](C)CO)C(=O)c2cc(NC(=O)CCCCCC(=O)Nc3ccccc3N)ccc2O[C@H]1CN(C)S(C)(=O)=O,inactive
6,COc1ccc(NC(=O)Nc2ccc3c(c2)C(=O)N([C@H](C)CO)C[C@@H](C)[C@H](CN(C)C(=O)NC2CCCCC2)OCCCC[C@H](C)O3)cc1,inactive
7,Cc1noc(C)c1NC(=O)N(C)C[C@H]1OCCCC[C@@H](C)Oc2ccc(NS(=O)(=O)c3ccc(Cl)cc3)cc2C(=O)N([C@@H](C)CO)C[C@@H]1C,inactive
8,C[C@H](CO)N1C[C@H](C)[C@@H](CN(C)C(=O)Cc2cccnc2)Oc2cc(C#Cc3ccccc3F)ccc2S1(=O)=O,inactive
9,C[C@H]1CN([C@@H](C)CO)S(=O)(=O)c2ccc(C#Cc3cccc(F)c3)cc2O[C@@H]1CN(C)S(=O)(=O)c1ccccc1F,inactive
10,CCN1CCCC[C@@H]1C(=O)O,inactive
11,C[C@H]1CN([C@@H](C)CO)C(=O)Cc2cc(NC(=O)Nc3ccc4c(c3)OCO4)ccc2O[C@H]1CN(C)C(=O)Nc1cccc2ccccc12,inactive
12,CN(C)C(=O)CN1C[C@]23CN(Cc4cnn(C)c4)C[C@@H](C[C@@H]2S1(=O)=O)O3,inactive
13,CO[C@@H]1CN(C)C(=O)c2cc(NS(C)(=O)=O)ccc2OC[C@H](C)N(S(C)(=O)=O)C[C@@H]1C,inactive
14,COc1ccc(S(=O)(=O)Nc2ccc3c(c2)C(=O)N([C@@H](C)CO)C[C@@H](C)[C@H](CN(C)C(=O)Nc2ccc4c(c2)OCO4)OCCCC[C@H](C)O3)cc1,inactive
15,C[C@@H]1CN([C@H](C)CO)C(=O)c2cccc(NC(=O)c3ccc(-c4nccs4)cc3)c2O[C@H]1CN(C)S(=O)(=O)c1cn(C)cn1,inactive
16,C[C@H]1CN([C@@H](C)CO)C(=O)c2cccc(NS(=O)(=O)c3ccccc3)c2O[C@@H]1CN(C)C(=O)Nc1cccc2ccccc12,inactive
17,COc1ccc2c3c(n(c2c1)C)[C@H](CO)N(C[C@]13CN(C1)S(=O)(=O)c1ccccc1)C(=O)c1cccnc1,inactive
18,CCCNC(=O)Nc1ccc2c(c1)OC[C@@H](C)N(C(=O)C1CCOCC1)C[C@@H](C)[C@@H](OC)CN(C)C2=O,inactive
19,O=c1ncc(F)c[nH]1,inactive
20,COc1ccc(NC(=O)N2C[C@H](O)COC[C@H]3O[C@@H](CC(=O)NCc4ccccc4OC)CC[C@@H]32)cc1,inactive
21,Cc1c(/C=N/c2ccc(C(C)C)cc2)sc2ccccc12,inactive
22,Cc1ccc(S(=O)(=O)N2C[C@H](O)COC[C@H]3O[C@@H](CC(=O)NCc4ccc5c(c4)OCO5)CC[C@@H]32)cc1,inactive
23,COc1ccc(NC(=O)Nc2cccc3c2O[C@H](CN(C)Cc2ccc(-c4ccccc4)cc2)[C@@H](C)CN([C@@H](C)CO)C3=O)cc1,active
24,CC[C@@H](C[C@@H](O)[C@@H](C)[C@H]1CC[C@H]2C3=CC(=O)[C@H]4[C@H](C)[C@@H](OC(=O)c5ccccc5)CC[C@]4(C)[C@H]3CC[C@]12C)C(C)C,inactive
25,CC(C)(C)OC(=O)C[C@H]1C/C=C/CC[C@H](Cc2ccc(F)cc2)C(=O)O[C@H](c2ccccc2)CNC1=O,inactive
26,NCCCCCNC(=O)[C@@H]1C[C@@H]2C(=O)NCC(=O)N2[C@@H]1c1cccc(OCCO)c1,inactive
27,COc1ccc(S(=O)(=O)N(C)C[C@H]2Oc3ccc(NC(=O)CCC(F)(F)F)cc3CC(=O)N([C@@H](C)CO)C[C@@H]2C)cc1,inactive
28,O=C(C[C@@H]1C[C@@H]2c3cc(NS(=O)(=O)c4ccc(F)cc4)ccc3O[C@@H]2[C@H](CO)O1)NC1CCCC1,inactive

# System: HepG2
# Assay: cytotoxicity call (relative viability < 0.9)
# Details: 10 µM
row,SMILES,cytotoxicity call
1,Cc1ccc(S(=O)(=O)Nc2ccc3c(c2)C(=O)N([C@@H](C)CO)C[C@H](C)[C@H](CN(C)Cc2ccc(Oc4ccccc4)cc2)O3)cc1,inactive
2,C[C@@H]1CCCCO[C@@H](CN(C)C(=O)Nc2ccc3c(c2)OCO3)[C@H](C)CN([C@@H](C)CO)C(=O)c2cc(NS(=O)(=O)c3ccccc3)ccc2O1,inactive
3,Cc1cccc(N2CCC(N)CC2)c1,inactive
4,O=C(C[C@@H]1C[C@H]2c3cc(NC(=O)C4CCOCC4)ccc3O[C@H]2[C@@H](CO)O1)NCCN1CCCCC1,inactive
5,COc1cccc(Nc2ncnn3ccc(CN4CC[C@@H](N)[C@H](O)C4)c23)c1,inactive
6,C[C@@H]1CCCCO[C@@H](CN(C)C(=O)Nc2ccccc2)[C@@H](C)CN([C@@H](C)CO)C(=O)c2cc(NC(=O)Nc3ccc(F)cc3)ccc2O1,inactive
7,O=C(O)c1cc(O[C@@H]2O[C@H](CO)[C@@H](O)[C@H](O)[C@H]2O)c2ccccc2c1O,inactive
8,O=C(O)CCN1C(=O)NC2(CCCC2)C1=O,inactive
9,O=C(C[C@@H]1CC[C@@H]2[C@H](COC[C@H](O)CN2C(=O)Nc2ccc(Cl)c(Cl)c2)O1)NCc1ccc(Cl)c(Cl)c1,inactive
10,COCC(=O)Nc1ccc2c(c1)C(=O)N(C)C[C@H](OC)[C@H](C)CN(Cc1ccccc1F)[C@H](C)CO2,inactive
11,COc1cccc(S(=O)(=O)N[C@@H]2CC[C@@H](CCn3cc(-c4ccccc4OC)nn3)O[C@H]2CO)c1,inactive
12,C[C@@H]1CCCCO[C@@H](CN(C)S(=O)(=O)c2cccs2)[C@H](C)CN([C@H](C)CO)C(=O)c2cc(NC(=O)CCC(F)(F)F)ccc2O1,inactive
13,COCC(=O)N1C[C@H](C)[C@@H](OC)CN(C)C(=O)c2ccc(NC(=O)Nc3cccc(F)c3)cc2OC[C@@H]1C,inactive
14,C[C@@H]1CCCCO[C@H](CN(C)Cc2ccccc2)[C@@H](C)CN([C@H](C)CO)C(=O)c2cc(NC(=O)c3ccccc3)ccc2O1,inactive
15,Cc1ccccc1NC(=O)C[C@H]1CC[C@H]2[C@@H](COc3ccc(NC(=O)c4ccc(Cl)cc4)cc3C(=O)N2C)O1,inactive
16,Cc1cc(O)n(C[C@H]2CCCO2)c(=O)c1C#N,inactive
17,C[C@@H]1CN([C@H](C)CO)C(=O)c2cc(NC(=O)CCCCCC(=O)Nc3ccccc3N)ccc2O[C@H]1CN(C)S(C)(=O)=O,inactive
18,COc1ccc(NC(=O)Nc2ccc3c(c2)C(=O)N([C@H](C)CO)C[C@@H](C)[C@H](CN(C)C(=O)NC2CCCCC2)OCCCC[C@H](C)O3)cc1,inactive
19,Cc1noc(C)c1NC(=O)N(C)C[C@H]1OCCCC[C@@H](C)Oc2ccc(NS(=O)(=O)c3ccc(Cl)cc3)cc2C(=O)N([C@@H](C)CO)C[C@@H]1C,inactive
20,C[C@H](CO)N1C[C@H](C)[C@@H](CN(C)C(=O)Cc2cccnc2)Oc2cc(C#Cc3ccccc3F)ccc2S1(=O)=O,inactive

row,SMILES,cytotoxicity call
1,C[C@H]1CN([C@@H](C)CO)S(=O)(=O)c2ccc(C#Cc3cccc(F)c3)cc2O[C@@H]1CN(C)S(=O)(=O)c1ccccc1F,inactive
2,CCN1CCCC[C@@H]1C(=O)O,inactive
3,C[C@H]1CN([C@@H](C)CO)C(=O)Cc2cc(NC(=O)Nc3ccc4c(c3)OCO4)ccc2O[C@H]1CN(C)C(=O)Nc1cccc2ccccc12,inactive
4,CN(C)C(=O)CN1C[C@]23CN(Cc4cnn(C)c4)C[C@@H](C[C@@H]2S1(=O)=O)O3,inactive
5,CO[C@@H]1CN(C)C(=O)c2cc(NS(C)(=O)=O)ccc2OC[C@H](C)N(S(C)(=O)=O)C[C@@H]1C,inactive
6,COc1ccc(S(=O)(=O)Nc2ccc3c(c2)C(=O)N([C@@H](C)CO)C[C@@H](C)[C@H](CN(C)C(=O)Nc2ccc4c(c2)OCO4)OCCCC[C@H](C)O3)cc1,inactive
7,C[C@@H]1CN([C@H](C)CO)C(=O)c2cccc(NC(=O)c3ccc(-c4nccs4)cc3)c2O[C@H]1CN(C)S(=O)(=O)c1cn(C)cn1,inactive
8,C[C@H]1CN([C@@H](C)CO)C(=O)c2cccc(NS(=O)(=O)c3ccccc3)c2O[C@@H]1CN(C)C(=O)Nc1cccc2ccccc12,inactive
9,COc1ccc2c3c(n(c2c1)C)[C@H](CO)N(C[C@]13CN(C1)S(=O)(=O)c1ccccc1)C(=O)c1cccnc1,inactive
10,CCCNC(=O)Nc1ccc2c(c1)OC[C@@H](C)N(C(=O)C1CCOCC1)C[C@@H](C)[C@@H](OC)CN(C)C2=O,inactive
11,O=c1ncc(F)c[nH]1,inactive
12,COc1ccc(NC(=O)N2C[C@H](O)COC[C@H]3O[C@@H](CC(=O)NCc4ccccc4OC)CC[C@@H]32)cc1,inactive
13,Cc1c(/C=N/c2ccc(C(C)C)cc2)sc2ccccc12,inactive
14,Cc1ccc(S(=O)(=O)N2C[C@H](O)COC[C@H]3O[C@@H](CC(=O)NCc4ccc5c(c4)OCO5)CC[C@@H]32)cc1,inactive
15,COc1ccc(NC(=O)Nc2cccc3c2O[C@H](CN(C)Cc2ccc(-c4ccccc4)cc2)[C@@H](C)CN([C@@H](C)CO)C3=O)cc1,active
16,CC[C@@H](C[C@@H](O)[C@@H](C)[C@H]1CC[C@H]2C3=CC(=O)[C@H]4[C@H](C)[C@@H](OC(=O)c5ccccc5)CC[C@]4(C)[C@H]3CC[C@]12C)C(C)C,inactive
17,CC(C)(C)OC(=O)C[C@H]1C/C=C/CC[C@H](Cc2ccc(F)cc2)C(=O)O[C@H](c2ccccc2)CNC1=O,inactive
18,NCCCCCNC(=O)[C@@H]1C[C@@H]2C(=O)NCC(=O)N2[C@@H]1c1cccc(OCCO)c1,inactive
19,COc1ccc(S(=O)(=O)N(C)C[C@H]2Oc3ccc(NC(=O)CCC(F)(F)F)cc3CC(=O)N([C@@H](C)CO)C[C@@H]2C)cc1,inactive
20,O=C(C[C@@H]1C[C@@H]2c3cc(NS(=O)(=O)c4ccc(F)cc4)ccc3O[C@@H]2[C@H](CO)O1)NC1CCCC1,inactive
